The record followed here is paper PMC4242493.

The list shows a part of the results. The list includes weakly bound sequences.

This assay concerns the target MaxL homodimer (UniProt P61244). Nature of the assay: universal protein-binding microarray (PBM). As to conditions: PBS-based mixture, 10 nM His-tagged protein dimer, 2% milk, 200 ng/uL BSA, 50 ng/uL salmon testes DNA, 0.02% TX-100; detection with Alexa 488 anti-His …; high values mean tight binding; most listed sequences are background and not binding sites; double strand, one strand shown.
Sequence of UniProt P61244 (P61244 whole entry): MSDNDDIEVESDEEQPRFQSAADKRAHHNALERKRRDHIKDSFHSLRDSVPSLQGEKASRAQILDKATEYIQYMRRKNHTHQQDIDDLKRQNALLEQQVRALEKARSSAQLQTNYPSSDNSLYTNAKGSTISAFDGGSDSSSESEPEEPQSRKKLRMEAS
As to ATTGGCCG, the binding signal (normalized occupancy) amounted to 0.0716.

On to ACAGCCTA, for which the binding signal (normalized occupancy) was determined as 0.0773.

ACCTAGCG: the binding signal (normalized occupancy) is 0.0753.

Regarding CCAGCCGG, the binding signal (normalized occupancy) came out at 0.0652.

For the sequence CAGGAGAC, the binding signal (normalized occupancy) was 0.0746.

On to CCACATGC, for which the binding signal (normalized occupancy) was 0.163.

CAAGATCG: the binding signal (normalized occupancy) is 0.0763.

With ATAAACTC, the binding signal (normalized occupancy) came to 0.0764.

Consider GCATGGGA, for which the binding signal (normalized occupancy) stood at 0.0967.

ACCTTAGC: the binding signal (normalized occupancy) was determined as 0.0788.

As to AAGCGTTG, the binding signal (normalized occupancy) came out at 0.076.

On to AGGCATTG, for which the binding signal (normalized occupancy) was determined as 0.0775.

ACCCCAGG: the binding signal (normalized occupancy) is 0.0797.

Consider AAGAGAGT, for which the binding signal (normalized occupancy) turned out to be 0.0755.

As to CCTGTAGC, the binding signal (normalized occupancy) came to 0.0715.

In the case of CCACTTTC, the binding signal (normalized occupancy) came to 0.0756.

Take AACCTCAC: the binding signal (normalized occupancy) turned out to be 0.0803.

With AGGGTTAT, the binding signal (normalized occupancy) came to 0.0796.

CTCCACTC: the binding signal (normalized occupancy) is 0.0775.

As to CTACGTGA, the binding signal (normalized occupancy) was 0.0799.

As for AGGGTCAC, the binding signal (normalized occupancy) amounted to 0.0776.

With GAGTCATC, the binding signal (normalized occupancy) is 0.0754.

GAGCCGCA: the binding signal (normalized occupancy) was found to be 0.0693.

ACATAACG: the binding signal (normalized occupancy) came to 0.0824.

GTTGGGTA: the binding signal (normalized occupancy) is 0.0776.

Take GCATACCC: the binding signal (normalized occupancy) worked out at 0.0825.

With CTCTTGTC, the binding signal (normalized occupancy) was found to be 0.0714.

As to CGAATCCA, the binding signal (normalized occupancy) stood at 0.0805.

For the sequence CAAGCGAC, the binding signal (normalized occupancy) was 0.0732.

For GCTTCCAC, the binding signal (normalized occupancy) was 0.0784.

As for CGGCATAG, the binding signal (normalized occupancy) amounted to 0.0745.

In the case of ACGTAAAC, the binding signal (normalized occupancy) turned out to be 0.0734.

For AGCATGTC, the binding signal (normalized occupancy) was 0.1.

Take AAGCTCCT: the binding signal (normalized occupancy) came to 0.0659.

Take CAGCAGGA: the binding signal (normalized occupancy) was determined as 0.0731.

Turning to GGAGAGTA, the binding signal (normalized occupancy) came to 0.0751.

Turning to AATCTGCC, the binding signal (normalized occupancy) is 0.0731.

On to CTTGCTGA, for which the binding signal (normalized occupancy) worked out at 0.0724.

For ATGCACTC, the binding signal (normalized occupancy) was determined as 0.0862.

On to TCGTAACA, for which the binding signal (normalized occupancy) came out at 0.0767.

Turning to CGTGCCGC, the binding signal (normalized occupancy) amounted to 0.0875.

Turning to CACAGGCG, the binding signal (normalized occupancy) was found to be 0.0711.

For CCAGGCTA, the binding signal (normalized occupancy) is 0.0722.

On to ATCCGATG, for which the binding signal (normalized occupancy) is 0.0766.

For GTGGCTTA, the binding signal (normalized occupancy) is 0.0837.

Consider AGTTCTGC, for which the binding signal (normalized occupancy) was 0.0709.

Turning to AGCCGCCT, the binding signal (normalized occupancy) was determined as 0.0668.

In the case of AGCACTTA, the binding signal (normalized occupancy) turned out to be 0.0747.

Regarding ATATACCG, the binding signal (normalized occupancy) worked out at 0.087.

Turning to GCCACGCC, the binding signal (normalized occupancy) was found to be 0.0925.

For the sequence AACTACCA, the binding signal (normalized occupancy) is 0.075.

Turning to CAGAAGGC, the binding signal (normalized occupancy) was 0.0707.

Turning to ATCCTAGC, the binding signal (normalized occupancy) worked out at 0.0775.

With AGGCACCT, the binding signal (normalized occupancy) was 0.078.

For ACTGGCCC, the binding signal (normalized occupancy) was determined as 0.0649.

In the case of ACACAAGC, the binding signal (normalized occupancy) came to 0.0739.

As for CCAATAGA, the binding signal (normalized occupancy) was 0.0735.

For the sequence CCGTAATC, the binding signal (normalized occupancy) stood at 0.0712.

As for AAACGAGA, the binding signal (normalized occupancy) was 0.0701.

With CGAATAAG, the binding signal (normalized occupancy) came out at 0.0736.

Consider CCTACGCG, for which the binding signal (normalized occupancy) is 0.0802.

On to AAGAGTCG, for which the binding signal (normalized occupancy) is 0.0695.

As for ACACTGGC, the binding signal (normalized occupancy) came to 0.0774.

Take GAAAAGGA: the binding signal (normalized occupancy) is 0.074.

Regarding ATCAGCTA, the binding signal (normalized occupancy) was determined as 0.0696.

With ATTTGATC, the binding signal (normalized occupancy) was 0.0756.

CAGGACGA: the binding signal (normalized occupancy) worked out at 0.0712.

In the case of AAGACGGC, the binding signal (normalized occupancy) amounted to 0.07.

For ATCCGCAG, the binding signal (normalized occupancy) worked out at 0.0714.

With AACGTACC, the binding signal (normalized occupancy) amounted to 0.08.

On to GCCCATGA, for which the binding signal (normalized occupancy) stood at 0.0786.

As for GCCCCTAA, the binding signal (normalized occupancy) was determined as 0.0726.

Consider CACAACAA, for which the binding signal (normalized occupancy) was determined as 0.0752.

For AAAAGAGT, the binding signal (normalized occupancy) turned out to be 0.0704.

Take AGTCTCCC: the binding signal (normalized occupancy) came to 0.0733.

Take AGCAGCAC: the binding signal (normalized occupancy) turned out to be 0.0724.

For AAGACCGA, the binding signal (normalized occupancy) came to 0.0693.

For CGCGTACA, the binding signal (normalized occupancy) amounted to 0.0792.

With GTAAAAGA, the binding signal (normalized occupancy) was 0.0725.

With TGAAAGAA, the binding signal (normalized occupancy) worked out at 0.0757.

Consider ATGAAGCC, for which the binding signal (normalized occupancy) turned out to be 0.0711.

For GCCAAAAC, the binding signal (normalized occupancy) amounted to 0.0716.

In the case of TGGGCCAA, the binding signal (normalized occupancy) is 0.0724.

As for CCTGAGAC, the binding signal (normalized occupancy) was determined as 0.0712.

For the sequence AGTCATTG, the binding signal (normalized occupancy) is 0.0769.

For the sequence GCTGAAAC, the binding signal (normalized occupancy) stood at 0.0743.

As for ATGAGCTA, the binding signal (normalized occupancy) turned out to be 0.0792.

Turning to AGTGCTAA, the binding signal (normalized occupancy) was 0.074.

As for AGTAACTA, the binding signal (normalized occupancy) was 0.0739.

As for CAGTGAGA, the binding signal (normalized occupancy) was determined as 0.0736.

Turning to ACTTGGAA, the binding signal (normalized occupancy) was determined as 0.0722.

For the sequence ACAGGTAG, the binding signal (normalized occupancy) was 0.0749.

Take CTCGACAC: the binding signal (normalized occupancy) amounted to 0.0782.

In the case of AAACCAGT, the binding signal (normalized occupancy) is 0.0721.

Turning to GTGTTAGA, the binding signal (normalized occupancy) stood at 0.0823.

Regarding AACAAAGC, the binding signal (normalized occupancy) turned out to be 0.0681.

For the sequence TAGTGACA, the binding signal (normalized occupancy) amounted to 0.0792.

For the sequence CATCAGAA, the binding signal (normalized occupancy) came out at 0.0803.

As for AGAAACCG, the binding signal (normalized occupancy) stood at 0.0723.

For AACGGACC, the binding signal (normalized occupancy) worked out at 0.0686.

For TGCTCCCA, the binding signal (normalized occupancy) is 0.076.

On to CTTATGCC, for which the binding signal (normalized occupancy) came to 0.0794.

As to CAGTTTTA, the binding signal (normalized occupancy) amounted to 0.0693.

For the sequence CCGCTCAC, the binding signal (normalized occupancy) turned out to be 0.0669.

Take AGCACTAC: the binding signal (normalized occupancy) was found to be 0.0757.

On to CCTTGCTC, for which the binding signal (normalized occupancy) is 0.0719.

As for AGTTGTAT, the binding signal (normalized occupancy) was found to be 0.0775.

With CAACCCAG, the binding signal (normalized occupancy) was determined as 0.0693.

For ATTGGTTG, the binding signal (normalized occupancy) turned out to be 0.0742.

For the sequence AGAATAGG, the binding signal (normalized occupancy) amounted to 0.0758.

Consider GATCTTGA, for which the binding signal (normalized occupancy) was 0.0811.

As to AACGCGAA, the binding signal (normalized occupancy) turned out to be 0.0761.

As to CGTATAGC, the binding signal (normalized occupancy) amounted to 0.0719.

For the sequence ATCGATTG, the binding signal (normalized occupancy) was 0.0721.

Regarding AGTGCCGC, the binding signal (normalized occupancy) was determined as 0.0745.

Regarding CCACTTGA, the binding signal (normalized occupancy) amounted to 0.0741.

Consider GGTGATAC, for which the binding signal (normalized occupancy) was determined as 0.0811.

For CTGCGCTC, the binding signal (normalized occupancy) was determined as 0.0691.

As for AAATAGCT, the binding signal (normalized occupancy) was found to be 0.0707.

As to CCGGCTTA, the binding signal (normalized occupancy) was 0.067.

In the case of CACTCCGC, the binding signal (normalized occupancy) was 0.0748.

For the sequence CTCGGTTC, the binding signal (normalized occupancy) stood at 0.0712.

With CAGCGTCC, the binding signal (normalized occupancy) amounted to 0.069.

Take CCACCAGA: the binding signal (normalized occupancy) was found to be 0.0816.

CATTTTCA: the binding signal (normalized occupancy) stood at 0.0798.

Turning to CTCCTCCC, the binding signal (normalized occupancy) is 0.0718.

As for CAACTTTA, the binding signal (normalized occupancy) was 0.0732.

As to ACGGAGAG, the binding signal (normalized occupancy) is 0.0726.

As for CAAACACC, the binding signal (normalized occupancy) turned out to be 0.0771.

AGATTCCA: the binding signal (normalized occupancy) came out at 0.0786.

In the case of GTCGCCAA, the binding signal (normalized occupancy) is 0.0726.

Turning to AAACGTTC, the binding signal (normalized occupancy) was found to be 0.0731.

For the sequence AATTACCT, the binding signal (normalized occupancy) is 0.0757.

With CCTTTACA, the binding signal (normalized occupancy) stood at 0.0797.

For AAGTTAGT, the binding signal (normalized occupancy) stood at 0.0669.

As for CTTTTGAC, the binding signal (normalized occupancy) amounted to 0.0784.

Take AGCCGACT: the binding signal (normalized occupancy) amounted to 0.0671.

In the case of AACGAGCT, the binding signal (normalized occupancy) was 0.0726.

For the sequence CAATACAG, the binding signal (normalized occupancy) amounted to 0.0779.

With AAACCCTC, the binding signal (normalized occupancy) was 0.0736.

AGTGGAGG: the binding signal (normalized occupancy) came to 0.0754.

On to ATTTCGTG, for which the binding signal (normalized occupancy) is 0.0757.

As for ACCGTTTG, the binding signal (normalized occupancy) turned out to be 0.0712.

Take AGCGGCGG: the binding signal (normalized occupancy) stood at 0.0668.

Regarding ATATCCGG, the binding signal (normalized occupancy) worked out at 0.076.

On to GTGATAAA, for which the binding signal (normalized occupancy) turned out to be 0.0811.

Regarding CTGCATGA, the binding signal (normalized occupancy) stood at 0.083.

As for ACGATGCG, the binding signal (normalized occupancy) amounted to 0.0781.

As to ATTCGTTA, the binding signal (normalized occupancy) was found to be 0.0786.

GCGGATAC: the binding signal (normalized occupancy) was 0.0766.

On to CCTTCGGA, for which the binding signal (normalized occupancy) was 0.0651.

For TCCGCTAA, the binding signal (normalized occupancy) is 0.0692.

With CGGTTTGC, the binding signal (normalized occupancy) was found to be 0.0697.

Turning to AGACGCGA, the binding signal (normalized occupancy) is 0.071.

As for CTAGAAAG, the binding signal (normalized occupancy) was 0.0742.

Consider ACCTCCTC, for which the binding signal (normalized occupancy) stood at 0.0717.

On to AAACTTGA, for which the binding signal (normalized occupancy) was found to be 0.0812.

With CATTACCC, the binding signal (normalized occupancy) amounted to 0.0825.

GCGCCAAC: the binding signal (normalized occupancy) was found to be 0.0726.

As to AATCCATA, the binding signal (normalized occupancy) is 0.0859.

In the case of ATGGGACA, the binding signal (normalized occupancy) came to 0.0837.

On to CACATCGC, for which the binding signal (normalized occupancy) was determined as 0.0785.

On to CACTGTTC, for which the binding signal (normalized occupancy) is 0.0718.

AATGGCCA: the binding signal (normalized occupancy) turned out to be 0.0755.

On to ATCGAGAC, for which the binding signal (normalized occupancy) was found to be 0.0714.

Regarding GAGGCGCC, the binding signal (normalized occupancy) stood at 0.0651.

In the case of CCTACCTC, the binding signal (normalized occupancy) is 0.0702.

For the sequence GAAGGAGA, the binding signal (normalized occupancy) was 0.0816.

With ACCCCCGC, the binding signal (normalized occupancy) was found to be 0.084.

Regarding ATATTTGG, the binding signal (normalized occupancy) is 0.0808.

For the sequence ATAAACGC, the binding signal (normalized occupancy) worked out at 0.0803.

As for GGAGGCAA, the binding signal (normalized occupancy) was found to be 0.0756.
